For 22 molecules, binding signal results are on record in article PMC12136788.

B1: chr1:184691659:184691688:-|3pUTR|ENSG00000116406|msi1_unk|total|mutant (ssRNA)
RNA: GGGAGUUCUACAGUCCGACGAUCCUCCAACGUUGUAAUUACAACUCUACAUUCAUUUACUUACUUGACAUACUGCCACAAAGCCGUUUUUGAGUUCAUUAAAAAUUCCAAAGGCAUCCGUUGUUUUUUUUUUUUUCCGUGUUUCAACAGAGGAUUGAGCAUCA
B2: chr7:66152395:66152486:+|3pUTR|ENSG00000241258|msi1_unk|FALSE|overlapping (ssRNA)
RNA: GGGAGUUCUACAGUCCGACGAUCCGUUGAGAGGAUUGUUUAUUUGAUUUUUAUCCUCAUCCCAGCAGGCCUGGCUUUGUGGUUAGUUGGGUACAUCACAAAAAUAAGUUAAAAAGAAAUAUUUGUGCCUUGGGGAGAAGAAACCAACAGAGGAUUGAGCAUCA
B3: chr18:67512643:67512744:-|CDS|ENSG00000171451|unk|FALSE|bound_elsewhere (ssRNA)
RNA: GGGAGUUCUACAGUCCGACGAUCGCCAUGAUGGAUGUGUGGGAUGCACAUUACAAAAUGUUUUGGUUUGAUCAUCAUGGCAAUAGUCCCAUGGCCAGUAUACAGGAAGCAGAGCAAGCUGCUGAAUUUAAAAAACGAUGGACUCAACAGAGGAUUGAGCAUCA
B4: chr14:51255895:51255996:+|3pUTR|ENSG00000139921|msi1_unk|total|mutant (ssRNA)
RNA: GGGAGUUCUACAGUCCGACGAUCGUGAAUCCAUCCGAUUUACAGUAUCGUAAUAUACAAGUUUUCUUUAAAGCCCUCUCCUUCCGAAUUUAAAAUAUUGUACCAUUGAAGAGUUUGGAUGUGUAACUUGUGAUGCCUCCGAAACAACAGAGGAUUGAGCAUCA
B5: chr16:2586768:2586869:+|CDS|ENSG00000140992|unk|FALSE|bound_elsewhere (ssRNA)
RNA: GGGAGUUCUACAGUCCGACGAUCCUCCUCACACUCCCUGUCAGCCUCCGACACGGGCCUGCCCCAGAGGUCAGGCAGCAACAUAGAGCAGUACAUUCACGAUCUGGACUCGAACUCCUUUGAACUGGACUUACAGUUUUCCGACAACAGAGGAUUGAGCAUCA
B6: chr17:51192749:51193016:-|CDS|ENSG00000011258|control|control|control (ssRNA)
RNA: GGGAGUUCUACAGUCCGACGAUCUGGAUGGGAAGAAGAGUAUGAUCAGUGGGUAGACUGUGAGUCACCUGACCUCUAUCCUGUAGGGUGGUGUCAGUUAACUGGAUAUCAACUACAGCCUCCAGCAUCACAGUGUAAGUUGGUCAACAGAGGAUUGAGCAUCA
B7: chr7:151349087:151349194:+|CDS|ENSG00000013374|unk|FALSE|unique (ssRNA)
RNA: GGGAGUUCUACAGUCCGACGAUCCCUUGCUAAGCAGUACUCUGACAGACUAGAAUGCUGUGAAAAUGAAGUAGAAAAGGUAAUAGAAGAAAUACGUUGCAAGGCAAUUGAGCGUGGAACAGGAAAUGACAAUUAUAGAACAACCAACAGAGGAUUGAGCAUCA
B8: chr6:158785413:158785514:-|CDS|ENSG00000092820|msi1|FALSE|unique (ssRNA)
RNA: GGGAGUUCUACAGUCCGACGAUCGAGCUCAUCCAGGACAUCACCCAGAAACUUUUCUUCCUCCAAGUGAAGGAAGGAAUCCUUAGCGAUGAGAUCUACUGCCCCCCUGAGACUGCCGUGCUCUUGGGGUCCUACGCUGUGCAGCAACAGAGGAUUGAGCAUCA
B9: chr4:15962460:15963129:-|CDS|ENSG00000137441|control|control|control (ssRNA)
RNA: GGGAGUUCUACAGUCCGACGAUCAAUCAAGCCCUGCAGGAGCUGAGGCGCCUUCACCAUGCGUGCCAGGGGGCCCCGGUGCUUAGGCCAUCCGUGUGCAGGGAGGCUGGACCCCAGGCCCAUAUGCAGCAGGUGACUUCCAGCCAACAGAGGAUUGAGCAUCA
B10: chr1:42926584:42926685:-|3pUTR|ENSG00000117394|msi1|FALSE|unique (ssRNA)
RNA: GGGAGUUCUACAGUCCGACGAUCGCCUGAGGGUGGAGACUAAGCCCUGUCGAGACACUUGCCUUCUUCACCCAGCUAAUCUGUAGGGCUGGACCUAUGUCCUAAGGACACACUAAUCGAACUAUGAACUACAAAGCUUCUAUCCAACAGAGGAUUGAGCAUCA
B11: chr9:128390415:128390516:+|3pUTR|ENSG00000167118|msi1|total|mutant (ssRNA)
RNA: GGGAGUUCUACAGUCCGACGAUCCUUACAGCUCAUUCUGCUGGGGGCCGAGAUGAGGGGAGGGAGUAAGUUAAACCUUGGACCCGCAAGCCGAAGCCUGGGGGGAUGCGUGUGCCUCAGUUUCCUCCUCCACAACUGAAUAUACAACAGAGGAUUGAGCAUCA
B12: chr17:35009752:35009853:-|3pUTR|ENSG00000092871|msi1|FALSE|unique (ssRNA)
RNA: GGGAGUUCUACAGUCCGACGAUCAUUCAGCUACUCAGUUCCUCUGUAAAACAGGUCUAUGUAUGUGCAAUUCAGCUAAGAUCUAGCAGUAACUUAAGGGCAGAAGCUGGCUCUCUACUUACAACCUGCUUUCUCUGCUGAAGCCAACAGAGGAUUGAGCAUCA
B13: chr15:93024873:93024975:+|3pUTR|ENSG00000173575|unk|total|mutant (ssRNA)
RNA: GGGAGUUCUACAGUCCGACGAUCGGUCCAGCUCUGAUUCGGGUCACCACUCCUGCACUUUGGCACCCCAUCCCAUUCCAGCCCCGUUCUGGCCUCCCACUUUGACGGGCACUUGGAGGAGGAGCUGACUGUGUGUGUACCAGCCAACAGAGGAUUGAGCAUCA
B14: chr10:26980575:26980839:-|three_prime_utr|ENSG00000107890|control|control|control (ssRNA)
RNA: GGGAGUUCUACAGUCCGACGAUCGCUUACUCCGACCUCUCUGAACUUCCUGGACCAGAUCUGUUUCCUCUGCCUGCAUGCUCUAGCCUACCAUCUUCCUCUCCUUGUCUGCUACUCACUCAACAGAAGGCAACAGGGUGGUCUCAACAGAGGAUUGAGCAUCA
B15: chr2:176131361:176131462:+|CDS|ENSG00000175879|unk|FALSE|unique (ssRNA)
RNA: GGGAGUUCUACAGUCCGACGAUCGGAAUUUCUUUUUAACCCCUAUCUGACCAGGAAAAGAAGAAUCGAGGUUUCCCACGCCCUAGCCCUCACCGAGAGACAGGUAAAAAUCUGGUUCCAGAACAGGAGAAUGAAAUGGAAAAACAACAGAGGAUUGAGCAUCA
B16: chr3:120396629:120396730:-|3pUTR|ENSG00000163430|msi1|total|mutant (ssRNA)
RNA: GGGAGUUCUACAGUCCGACGAUCGCCUUCAUUUCCCGGAGUGCUUUAAGAGAAACUGUAAAUGGUGCUCUGGGGCUGGAGGCCCGUAAGGAAACUGCAUCACGAUUGAAAGAGGAACAGACCCAAAUCUGAACCUCUUUUGAGCAACAGAGGAUUGAGCAUCA
B17: chr10:63214216:63214317:-|CDS|ENSG00000171988|unk|total|mutant (ssRNA)
RNA: GGGAGUUCUACAGUCCGACGAUCUAAGCUGCAUAAGCGAAGUCCACCUCCAGAGACUAUAAAAUCUAAACUUAAUACUUCAGCCGAUACUCACAAGAUAAAAUCCAGCCCAUCACCUGAAGUUGUUAAACCCAAAAUAACUCACAACAGAGGAUUGAGCAUCA
B18: chr8:23842656:23842757:-|3pUTR|ENSG00000159167|msi1|total|mutant (ssRNA)
RNA: GGGAGUUCUACAGUCCGACGAUCCCCCAAACUUAUGGACACUGCCUCCGCCUCUUGGAAAUCAGGCCGACCAUAUUCUAAGUCCGACUCUUCCCCUCCCUCCCACACUUCCCACCCCCAGGCAAGGCUGACUUCUCUGAAUCACAACAGAGGAUUGAGCAUCA
B19: ENSG00000013374:stop:overlap|stop_codon|ENSG00000013374|stop_codon|NA|stop_codon (ssRNA)
RNA: GGGAGUUCUACAGUCCGACGAUCAAAGAAAAGAAUAUGGAAUAGCCUUGCCAUGUCUGUUGGACGCUGACAAAUAUUUCUGGUAGGCGCUUUUGUACUUGGUGAACACCAGCUUUAAGGAAGAUGGCCCAGACUAUACAGAACCAACAGAGGAUUGAGCAUCA
B20: chr15:93027272:93027374:+|3pUTR|ENSG00000173575|unk|total|mutant (ssRNA)
RNA: GGGAGUUCUACAGUCCGACGAUCCCAGGAAUCUGUGAGGAUGGUAUUCCCUGGAGUCUGGCUUUGAAAGAUUUCAUUGUUGGCCGAAAUAACAGGUUGAGAAAGAGGGAGUCCGCAUCACCUAAAACCUGCACGUGAACAAGGCAACAGAGGAUUGAGCAUCA
B21: chr5:136975339:136975545:-|3pUTR|ENSG00000152377|msi1|total|mutant (ssRNA)
RNA: GGGAGUUCUACAGUCCGACGAUCAGAGCCCAUCAAAUCCUGAGUGUCAGUUUGUUGUCCCUAUUGCCGAUGAAACCGUGAUGCCGCAAAAACCCCGUAAAUUCUGAAUGCUUUUCCACGCCGACUUAUCUGGAAUGUGAACACCAACAGAGGAUUGAGCAUCA
B22: chr17:58090057:58090109:+|3pUTR|ENSG00000264364|msi1_unk|total|mutant (ssRNA)
RNA: GGGAGUUCUACAGUCCGACGAUCGGGCCGGAUCCGCUUGAAUCUUUUUUUUCUUUACAUUUUUCUCCUGUCUGCUCCCUGCUCCGCCCUCAGUUUCCUCAUUCCUCUGGAGUUCUCUCCGAGCAGCCCCUGUUGUCCGUUGGCCAACAGAGGAUUGAGCAUCA

The list shows a part of the results.

The target of the experiment is MSI1 full-length (mouse, UniProt Q61474 1-362). Description: nsRBNS (natural sequence RNA bind-n-seq); RBNS binding buffer (assumed for nsRBNS): 25 mM Tris pH 7.5, 150 mM KCl, 3 mM MgCl2, 0.01% Triton X-100, 500 ug/ml BSA, 20 U/ml SUPERase-In, 4 C; UNK is unkempt and MSI1 is Musashi-1; names of the RNAs are library labels; protein concentration not given here; high values mean tight binding.
UniProt Q61474, sequence (Q61474 whole entry): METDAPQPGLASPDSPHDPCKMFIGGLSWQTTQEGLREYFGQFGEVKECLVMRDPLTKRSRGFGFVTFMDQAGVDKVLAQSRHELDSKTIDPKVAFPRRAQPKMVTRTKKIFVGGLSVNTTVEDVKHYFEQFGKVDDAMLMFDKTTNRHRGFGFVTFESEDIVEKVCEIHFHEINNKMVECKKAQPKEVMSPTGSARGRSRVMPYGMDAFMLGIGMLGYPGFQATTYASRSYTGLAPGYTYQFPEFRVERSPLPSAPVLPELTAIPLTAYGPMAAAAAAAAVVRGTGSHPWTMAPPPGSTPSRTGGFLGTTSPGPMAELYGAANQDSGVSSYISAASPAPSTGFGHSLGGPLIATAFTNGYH
For B1, the binding signal was found to be 0.638 enrichment R.

In the case of B2, the binding signal is 0.782 enrichment R.

For the molecule B3, the binding signal stood at 0.328 enrichment R.

For the molecule B4, the binding signal worked out at 0.489 enrichment R.

The molecule B5 returned a binding signal of 0.781 enrichment R.

Consider B6, for which the binding signal was 0.441 enrichment R.

Take B7: the binding signal was found to be 10.7 enrichment R.

B8 had a binding signal of 0.366 enrichment R.

With B9, the binding signal is 0.447 enrichment R.

In turn, B10 came in with a binding signal of 0.514 enrichment R.

For the molecule B11, the binding signal came to 0.592 enrichment R.

Consider B12, for which the binding signal turned out to be 0.831 enrichment R.

B13 had a binding signal of 1.32 enrichment R.

Molecule B14 displayed a binding signal of 0.694 enrichment R.

For B15, the binding signal is 0.392 enrichment R.

As for B16, the binding signal came to 0.241 enrichment R.

Molecule B17 displayed a binding signal of 0.493 enrichment R.

B18 registered a binding signal of 0.838 enrichment R.

The molecule B19 displayed a binding signal of 5.09 enrichment R.

The molecule B20 yielded a binding signal of 0.321 enrichment R.

Consider B21, for which the binding signal was found to be 0.375 enrichment R.

The molecule B22 gave a binding signal of 0.767 enrichment R.
